The other results are listed elsewhere or left out.
Each sequence was assayed on PfHDP1 homeodomain (GST-tagged) (assay: gcPBM binding intensity (ln(normalized median fluorescence intensity)); higher = stronger DNA binding).
In short: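 Probes on an Agilent 4 × 180k array were primer-extended, double-stranded and 36 bp long, taken from intergenic genomic regions, with negative controls added. GST-tagged P. falciparum DNA-binding domains from E. coli, about 25 μg on average, were applied to the array for 1 h in 1× PBS containing 1% milk, 0.2 mg/ml BSA, 0.5% salmon testes DNA and 0.03% Triton X-100. Binding intensity, obtained after Alexa488 anti-GST antibody detection and a 488 nm scan, is the highest Masliner-normalised natural-log median intensity across replicate spots of either probe orientation.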

Row | Sequence | gcPBM binding intensity (ln)
1 | TATATATATATATATTGTACATATGTAACCTTTTAA [XGTACX_site3914] | 8.99
2 | ATAAGATTAAACATTGCACACAGAAATATATTTTCT [CACACA_site8743] | 9.1
3 | CATTTTGTTTTAAAGTGTACATTATGTAATATAAAA [XGTACX_site647] | 6.54
4 | ATTTATATTACCCTTGCATGTAGGTGCAATTTTTTT [TGCATGCA_site757] | 10.5
5 | TTTTTATAGGTAAAAACACACGCTAAAAATAATTAA [CACACA_site3731] | 6.41
6 | AGGTACTTTTTTAAAACACACATATAATAAATACAC [CACACA_site4730] | 7.03
7 | AATAAATATATATTCACACACAAACATATATATATA [CACACA_site4023] | 9.01
8 | AAATAAATAAATAAATAAACAAATATGTATAAATGG [XGTACX_negctrl_site153] | 6.4
9 | TTTATAATTTATATCACACACATATATATATAGTAA [CACACA_site8] | 6.6
10 | ATATATATATATAAAAGTACTTATTTTTATTTACAT [XGTACX_site4299] | 8.95
11 | GAGAGTACCTATATTGCATGCAGACTTTTTAAATAT [TGCATGCA_site564] | 6.92
12 | TAAAATAAAAATTTATGTACACATAAAAAAACAAAA [XGTACX_site1112] | 6.67
13 | GTTAAAATAATATGGTGTACAAATATATAAGTTCAT [XGTACX_site3262] | 6.67
14 | TTAATAAGAGAGCAATAGGTGGACTGTTTCTTTTAT [CACACA_negctrl_site1239] | 6.47
15 | TTTTTTTTTTTTTGTAGTACATTATGTATATTTTTA [XGTACX_site7810] | 6.33
16 | GTAATATATATTAAGTAATAGTTTATCTTAGGAAAA [TGCATGCA_negctrl_site302] | 5.89
17 | AATTTCTTCTTAGGGTGTACAATTTGACATAAGGAA [XGTACX_site1773] | 6.77
18 | ATCTTATATCGTAGAGATTTTTTTTTTTTTTCATTT [XGTACX_negctrl_site140] | 5.98
19 | GTGCCCTTTTTAATAACATGCAAATAACATATTTAT [TGCATGCA_site709] | 6.94
20 | AAAAAAAAAAAAAACACACAAACATCAAATTATTAT [CACACA_site1838] | 6.34
21 | AATTAGATGGATAAATGTACATATGTGAATATATTT [XGTACX_site85] | 6.77
22 | ATATAACACAAGGGCACACATATACCTTTCCTTTTT [CACACA_site412] | 6.94
23 | TTTATATTATACGCACTAATATATATATATATATAT [TGCATGCA_negctrl_site47] | 9.25

Row | Sequence | gcPBM binding intensity (ln)
24 | TAATATTTTTTGTGTACACATATATATATATATATA [CACACA_site5504] | 9.37
25 | AATTTACATATATATTGTACATTTATGTATATATAT [XGTACX_site4186] | 6.77
26 | TACTTATATTGAAATGGTACAGATAAAAAAAAAAAA [XGTACX_site1407] | 6.43
27 | TTTTGTAATGTGAATATTTGTATATTATTTGTATAT [CACACA_negctrl_site1677] | 6.36
28 | ACATTCTATCTAAGTACACACATTAATTTTTTTTTT [CACACA_site4106] | 6.85
29 | ATATTACAGTACAATACATGCATATGGAAAAAAAAA [TGCATGCA_site72] | 6.59
30 | GATATAGGGCGTATGTTAATCGTGAAAGAGTGTCTT [GTGCAC_negctrl_site102] | 6.81
31 | TTCAAATGATTTATGTGTACATAAAATTATTTTTTA [XGTACX_site107] | 6.01
32 | ATAAAGAATATAAATACACACTTAAATATAGATTAT [CACACA_site7804] | 6.46
33 | ATTGGTTCCCCTCTCTTTTCAATATATTTTTTTTTT [XGTACX_negctrl_site259] | 6.17
34 | TAATGAAGCTTATGCACACGTTCATTATTTATATTA [CACACA_site3219] | 10.4
35 | AAAAAATTAAAAATCACACATAAATATATATAAAAA [CACACA_site4192] | 6.46
36 | GCCTTTTAGTATTTCACACACGTAAATGAGTATATC [CACACA_site4748] | 6.93
37 | CTTCTTGTAAAATTTGCATGTAATTAAAAGAGAATG [TGCATGCA_site484] | 6.69
38 | TTCCCTATCTTTTCAGTGCATTTTGTTTCCTACCTT [GTGCAC_site9813] | 9.2
39 | TGTAGAACTCAATATTGTACATTATATAAAATGGGA [XGTACX_site3857] | 6.85
40 | ATAAAATTTATGACTTGTACATGTAAATAAAATATA [XGTACX_site762] | 6.7
41 | TTTAAATATATATATTGTACAAAAAAAAATAATAAA [XGTACX_site4759] | 6.73
42 | TTTTTTTGCATTTCATGTACATATATTGAGCTTAAA [XGTACX_site8485] | 7.73
43 | ATATATATATATTGTACACACATTTATGCATATATA [CACACA_site5738] | 8.81
44 | AAGTTATATTTGTGTACACATAATTTTATACTAATA [CACACA_site5553] | 7.12
45 | AATATTAAACAAAATAAATATATAAAAAATAAATAA [GTGCAC_negctrl_site93] | 6.35
